# This is one part of the list. These are further read-outs of the screen, such as a control signal, another cell line or another target. No call is given for them.
# What was measured:
# Test in all cases: Primary Screen for Target Class Profiling of Small Molecule Inhibitors of Methyltransferases
# [1] = molecular target: Glycine N-methyltransferase (Homo sapiens) (UniProt Q14749); details: purified enzyme, MTase-Glo SAH luminescence; measured here: GNMT inhibition; at 40 µM; stronger effect = lower value
# Method in brief: (§1)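 Each enzyme was reacted with SAM and its substrate, with compounds tested once at 40 uM; SAH formed was read by MTase-Glo luminescence.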
# [2] = molecular target: Guanidinoacetate N-methyltransferase (Homo sapiens) (UniProt Q14353); details: purified enzyme, MTase-Glo SAH luminescence; measured here: GAMT inhibition; at 40 µM; stronger effect = lower value
# Method in brief: as §1
# [3] = molecular target: Histamine N-methyltransferase (Homo sapiens) (UniProt P50135); details: purified enzyme, MTase-Glo SAH luminescence; measured here: HNMT inhibition; at 40 µM; stronger effect = lower value
# Method in brief: as §1
# [4] = molecular target: Nicotinamide N-methyltransferase (Homo sapiens) (UniProt P40261); details: purified enzyme, MTase-Glo SAH luminescence; measured here: NNMT inhibition; at 40 µM; stronger effect = lower value
# Method in brief: as §1
# [5] = molecular target: Phenylethanolamine N-methyltransferase (Homo sapiens) (UniProt P11086); details: purified enzyme, MTase-Glo SAH luminescence; measured here: PNMT inhibition; at 40 µM; stronger effect = lower value
# Method in brief: as §1
# % is set by controls: 0 for no effect and ±100 for the full control effect.
Structure (SMILES),"activity change, negative = inhibition [1] [%]","activity change, negative = inhibition [2] [%]","activity change, negative = inhibition [3] [%]","activity change, negative = inhibition [4] [%]","activity change, negative = inhibition [5] [%]"
O=C(c1ccc(Cn2cccn2)o1)N1CCC2(CC1)[C@H](O)C[C@@H]2O,-1.67,0.154,-1.25,1.18,-3.25
COc1ccc(CNc2nc3c(S(=O)(=O)c4ccc(F)cc4)nnn3c3ccccc23)cc1,-10,1.21,-7.31,-8.12,-8.43
O=C(O/N=C1\c2ccccc2-c2nc3ccccc3nc21)c1ccco1,–,-8.87,–,-22.8,-12.8
OC[C@@H]1O[C@H](CNCc2ccc(F)cc2)[C@H](N2CCCC2)[C@@H]1O,-5.04,-5.6,-2.07,-5.89,-14.8
NC/C=C\C(=O)O,-27.2,10.6,6.42,-7.87,-19
NC(=O)c1cccc(-c2cc(Nc3ccc(OC(F)(F)F)cc3)ncn2)c1,-6.08,5.86,1,-23.9,-3.7
Cc1cc(C)c(CNC(=O)c2cc(-c3ccc(CN4CCOCC4)cc3)cc3c2cnn3C2CCCC2)c(=O)[nH]1,-12.3,14.9,3.37,-7.14,2.47
C=C1CCC2(OC1)OC1CC3C4CC=C5CC(O)CC(O[C@@H]6OC[C@@H](O)[C@H](O)[C@H]6O)C5(C)C4CCC3(C)C1(O)C2C (some centres undefined),0,14.9,11.5,-1.77,8.85
CO[C@H]1CN(C2CCN(C(=O)C3CCN(C(C)=O)CC3)CC2)[C@H]1c1ccncc1,-4.18,-1.17,-1.21,-2.45,-1.72
CCOc1cccc(CN2CCc3c(c(CN(C(C)=O)c4ccccc4)nn3C)C2)c1O,-8.13,-4.05,-2.52,-7.94,-8.7
CC1CCC(NC(=O)C2(C)Cn3c(cc4sccc43)C(=O)N2CCc2ccccc2)CC1 (centres undefined),-1.46,4.33,-0.086,2.06,-4.6
CCOC(=O)c1cc2n(n1)CC(C)(C(=O)NC1CCCCC1)N(c1ccccc1C)C2=O (centres undefined),3.3,0,-3.09,11.2,5.51
Cc1cccc(-c2n[nH]n3c2nc(=O)c2ccc(C(=O)NCCc4ccc(Cl)cc4)cc23)c1,-9.56,1.9,-4.49,-9.95,-4.26
COc1ccc(CCN2C(=O)c3cc4occc4n3CC2(C)C(=O)NC2CCCCC2)cc1OC (centres undefined),-1.67,-3.4,6.1,-33.6,1.36
C[C@@H]1O[C@@H](O[C@H]2[C@H](O[C@H]3[C@H](O)[C@@H](C(=O)O)O[C@@H](O[C@H]4CC[C@@]5(C)C(CC[C@]6(C)C5CC[C@]57OC[C@@]8(CCC(C)(C)CC85)[C@H](O)C[C@]76C)C4(C)C)[C@@H]3O[C@@H]3O[C@H](CO)[C@@H](O[C@@H]4OC[C@@H](O)[C@H](O)[C@H]4O)[C@H](O)[C@H]3O)O[C@H](CO)[C@H](O)[C@@H]2O)[C@H](O)[C@H](O)[C@H]1O (some centres undefined),1.67,5.86,6.23,-4.19,9.26
COC(=O)CC1OC(C)C2=C(O)c3c(O)cccc3C(=O)C23OC13 (centres undefined),-78.1,-24.1,-2.31,-21.9,-70
Cc1ccc(CNC(=O)Cn2nc3n(Cc4ccccc4)c(=O)c4ccccc4n3c2=O)cc1,8.28,2.17,9.46,0.706,4.04
CC(CN1C(=O)c2cc3ccccc3n2CC1(C)C(=O)NC1CCCCC1)c1ccccc1 (centres undefined),1.09,0,-0.775,2.84,-2.64
CC(=O)c1cc(C(=O)NCc2c(C)ncc3c2CCNC3)[nH]n1,-7.62,-8.56,-5.44,-11.4,-10.7
CC(O)C(O)/C=C/C=C/C(=O)O[C@@H]1C=C(C(=O)O)[C@](O)(CO)[C@@]2(C)CCCC(C)(C)[C@H]12 (some centres undefined),-3.55,-3.57,4.22,-14.7,-11.3

Structure (SMILES),"activity change, negative = inhibition [1] [%]","activity change, negative = inhibition [2] [%]","activity change, negative = inhibition [3] [%]","activity change, negative = inhibition [4] [%]","activity change, negative = inhibition [5] [%]"
CNC(=O)[C@@H]1CN(C(=O)c2ccc(F)c(Cl)c2)C[C@H]1COC,-7.3,-6.5,-3.57,-8.67,-5.69
Cc1ccc(C)c(N2C(=O)c3cc(C(C)(C)C)nn3CC2(C)C(=O)NC2CCCCC2)c1 (centres undefined),-4.44,2.61,-2.38,0.501,-0.509
CC(c1cccs1)N(C)Cc1ccncc1 (centres undefined),-4.58,-5.09,-5.11,-8.57,0.339
CC1(CO)CC2C(O)C3=C(CC(C)(O)C2C1)C(=O)OC3 (centres undefined),-3.16,0.588,5.43,-11.9,-6.21
CC(=O)OCC1=CCC2C(C)(C)CCCC2(C)C12CCC(C)(CC(=O)O)O2 (centres undefined),2.88,3.57,8.42,-13.3,-2.4
CCC(C)NC(=O)c1ccc2c(=O)n(C)c3nn(Cc4ccccc4F)c(=O)n3c2c1 (centres undefined),5.53,1.06,10.9,-1.8,5.27
CC1(C)C2CC(OC3OC(COC4OCC(O)(CO)C4O)C(O)C(O)C3O)C1(C)CC2O (centres undefined),-6.88,-19.3,-2.75,-28,-3.84
NCCCC(=O)O,7.27,0.039,8.74,-7.48,0.75
Cc1ccc(-c2nn(C(C)(C)C)c3ncnc(N)c23)cc1,–,-11.8,–,-35.5,-5.32
Cn1c(=O)c2ccc(C(=O)NC3CCCCC3)cc2n2c(=O)n(CC(=O)Nc3ccc(F)cc3)nc12,-4.07,-1.33,-1.43,-4.03,-6.58
CCCCCCOC(=O)NC(=N)c1ccc(NCc2nc3cc(C(=O)N(CCC(=O)OCC)c4ccccn4)ccc3n2C)cc1,–,1.51,–,-29.4,-3.48
Cc1ccc(OCCC2CCN(C(=O)c3cc(CN4CCOCC4)on3)C2)cc1 (centres undefined),-2.5,0.486,-0.833,-3.16,1.04
CC(C)Cn1c(=O)c2ccc(C(=O)NC3CCCC3)cc2n2c(=O)n(CC(=O)NC(C)(C)C)nc12,3.97,0,5.88,2.31,3.22
Cc1cc(Nc2ncc3cc(-c4c(Cl)cccc4Cl)c(=O)n(C)c3n2)ccc1F,2.19,-22.5,5.08,-32.5,-9.23
CCN1CCC(N2CCCC(N3CCN(c4cccc(Cl)c4)CC3)C2)CC1 (centres undefined),-1.79,-0.4,-1.56,1.41,0.589
CC(C)CCC[C@@H](C)[C@H]1CC[C@H]2[C@@H]3CC(=O)[C@H]4C[C@@H](O)CC[C@]4(C)[C@H]3CC[C@]12C,-11.1,-2.29,3.63,-9.65,0.119
COc1cc(OC)c(NC(=O)N2CCn3c(C)ccc3C2C(C)C)cc1Cl (centres undefined),-3.34,2.33,-17.8,-9.33,-6.48
CN(C)c1ccc2ncc(Nc3ccc(Cl)cn3)n2n1,-12,-2.18,-20,-6.89,-4.41
C=CC(C)(CC/C=C(\C)C(=O)OC)OC1OC(COC(=O)CC(C)(O)CC(=O)O)C(OC2OC(CO)C(O)C(O)C2O)C(O)C1O (centres undefined),0,6.57,5.62,-7.27,5.35
O=c1c2ccccc2n2c(-c3ccc(Br)cc3)nnc2n1Cc1ccccc1,-0.74,0,2.34,5.32,-0.61

Structure (SMILES),"activity change, negative = inhibition [1] [%]","activity change, negative = inhibition [2] [%]","activity change, negative = inhibition [3] [%]","activity change, negative = inhibition [4] [%]","activity change, negative = inhibition [5] [%]"
CSc1cccc(N2C(=O)c3cc(-c4ccco4)nn3CC2(C)C(=O)NC2CCCCC2)c1 (centres undefined),-18.3,-11.9,-8.22,-8.99,-8.32
CC(=O)NC(Cc1ccccc1)C(=O)O (centres undefined),0,-11.4,-3.25,-20.5,-3.2
CCCNC(=O)N(C1CCOCC1)C1CCN(C(=O)c2nn(C)c3ccccc23)CC1,-0.608,0.688,0.457,-6.15,9.59
N#Cc1ccc(CN2CCC3(CNc4ccccc4[S+](=O)([O-])N3)C2)cc1 (centres undefined),-5.55,-4.92,-0.98,-4.56,-5.98
CCOC(=O)C(Cc1cccc(N2CCN([S+](=O)([O-])c3ccccc3Cl)CC2)c1)OC (centres undefined),-6.23,-6.58,-2.35,-26.9,-9.23
O=C(c1n[nH]c2ccccc12)N1CC2CC(C1)[C@H]1CCCC(=O)N1C2 (some centres undefined),-2.58,-0.99,-1.04,-8.7,9.66
Nc1ccc(-n2nc(C(F)(F)F)cc2C(F)(F)F)cc1,4.35,12.3,13.3,-2.15,9.69
CCC(C)NC(=O)c1ccc2c(=O)n(C(C)C)c3nn(CC(=O)NC(C)C)c(=O)n3c2c1 (centres undefined),5.17,0,6.35,1,2.71
NCCc1cnc[nH]1,4.09,11.4,92,-0.9,10.2
COc1ccc(CN2C(=O)c3cc4ccccc4n3CC2(C)C(=O)NCc2ccccc2)cc1 (centres undefined),-4.97,3.35,-3.5,-6.36,-3
CC(C)OCCCN1C(=O)c2cc3occc3n2CC1(C)C(=O)NC1CCCCCCC1 (centres undefined),3.23,4.71,10.7,-0.834,2.01
CC(C)OCCCn1c(=O)c2ccccc2n2c(=O)n(CC(=O)Nc3cc(F)ccc3F)nc12,-2.41,2.23,1.78,-7.73,-8.11
Cc1ccc(CNC(=O)N2CCn3cccc3C2C(C)C)cc1 (centres undefined),13.1,2.05,9.82,2.68,9.58
O=C(Cn1ccc2cc(S(=O)(=O)N3CCCC3)ccc21)NC1CCCC1,3.11,0,0.229,4.32,-0.052
CCCn1c(=O)c2ccc(C(=O)NCC(C)C)cc2n2c(SCC(=O)c3ccc(OC)cc3)nnc12,2.39,0,2.22,5.47,2.25
C=C(C)[C@@H]1CC[C@]2(C(=O)O)CC[C@]3(C)[C@H](CCC4[C@@]5(C)CCC(=O)C(C)(C)C5C(O)C[C@]43C)C12 (some centres undefined),0,-5.87,0.281,-17.7,-0.395
C[C@H](NCc1ccc(OCc2ccccc2F)cc1)C(N)=O,4.96,9.14,9.04,-9.69,5.83
CC(CNC(=O)c1cc2n(n1)CC(C)(C(=O)NC1CCCCCC1)N(C)C2=O)c1ccccc1 (centres undefined),8.79,2.51,3.89,10.2,4.33
Cc1ccc(NC(=O)C(=O)NC2CC(C)(C)NC(C)(C)C2)cc1,3.51,0.15,0.137,-11.5,-3.59

# Source: PubChem BioAssay AID1745853 (National Center for Advancing Translational Sciences (NCATS), 2022)
